The whole screen tested about 310,000 compounds, of which about 14,000 (4.5%) showed an effect of 50% or more. Effects have a minus sign here. Some of the results follow.
target: human ether-à-go-go-related gene (hERG) potassium channel (human, UniProt Q12809); test: primary screen, population patch clamp on CHO cells stably expressing hERG
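Note: peak tail current of the secondary pulse compared with the same well before compound.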

human ether-à-go-go-related gene (hERG) potassium channel, sequence (Q12809 whole entry, looked up): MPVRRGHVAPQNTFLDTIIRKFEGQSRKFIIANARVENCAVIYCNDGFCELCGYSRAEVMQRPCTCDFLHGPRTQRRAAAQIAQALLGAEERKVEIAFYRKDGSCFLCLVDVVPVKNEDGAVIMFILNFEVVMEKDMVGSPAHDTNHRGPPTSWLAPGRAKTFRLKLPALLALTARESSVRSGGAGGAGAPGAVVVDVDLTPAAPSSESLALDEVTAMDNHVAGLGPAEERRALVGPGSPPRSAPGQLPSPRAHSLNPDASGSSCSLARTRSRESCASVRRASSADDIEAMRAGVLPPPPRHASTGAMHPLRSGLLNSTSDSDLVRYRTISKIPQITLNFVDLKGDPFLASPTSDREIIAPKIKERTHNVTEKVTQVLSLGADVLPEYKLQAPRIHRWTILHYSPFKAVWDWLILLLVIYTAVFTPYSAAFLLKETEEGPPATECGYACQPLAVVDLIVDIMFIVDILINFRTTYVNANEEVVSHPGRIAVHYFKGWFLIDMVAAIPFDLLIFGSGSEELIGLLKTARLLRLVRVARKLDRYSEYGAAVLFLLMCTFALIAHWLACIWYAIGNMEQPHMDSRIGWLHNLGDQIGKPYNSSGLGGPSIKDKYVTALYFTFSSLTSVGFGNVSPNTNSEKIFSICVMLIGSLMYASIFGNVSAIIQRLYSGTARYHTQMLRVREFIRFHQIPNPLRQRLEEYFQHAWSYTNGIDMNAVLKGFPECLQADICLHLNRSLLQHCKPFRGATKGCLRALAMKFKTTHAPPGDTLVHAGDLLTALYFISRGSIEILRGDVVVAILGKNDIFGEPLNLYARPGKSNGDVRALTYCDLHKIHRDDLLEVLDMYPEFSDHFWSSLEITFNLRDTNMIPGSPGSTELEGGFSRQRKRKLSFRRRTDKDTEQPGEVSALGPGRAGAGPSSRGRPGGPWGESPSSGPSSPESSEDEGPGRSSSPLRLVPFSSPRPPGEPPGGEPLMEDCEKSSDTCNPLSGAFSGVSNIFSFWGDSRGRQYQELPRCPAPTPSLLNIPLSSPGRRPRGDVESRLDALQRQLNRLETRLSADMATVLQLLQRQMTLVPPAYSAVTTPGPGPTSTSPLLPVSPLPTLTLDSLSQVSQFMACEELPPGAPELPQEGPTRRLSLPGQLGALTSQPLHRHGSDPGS

Row | SMILES | hERG current change (%, negative = inhibition) at 10uM [%]
1 | COc1cc(O)c(C(CCN2CCN(c3ccccc3)CC2)c2ccc(N(C)C)cc2)c(OC)c1 (centres unmarked) | 5.52
2 | C/C(=C\c1ccccc1)CN1CCN(Cc2ccc(C)o2)C(CCO)C1 (centres unmarked) | -13.4
3 | CC(=O)Nc1sc(NC(=O)c2ccc(Cl)cc2)nc1-c1cccs1 | -3.55
4 | COc1ccc(Cl)cc1C(=O)NNC(=S)NC(=O)c1cc(-c2ccccc2)nc2ccccc12 | 16.3
5 | O=C(NCC(=O)N(c1ccccc1)C(C(=O)NC1CCCC1)c1cccnc1)c1ccco1 (centres unmarked) | 3.53
6 | COc1ccc(-c2nc3ccccc3n2OC(C)C(=O)O)cc1 (centres unmarked) | 22.2
7 | C=Cn1cc[n+](CC(=O)c2ccc(OC)cc2)c1.[Br-] | -10.5
8 | Cc1ccc(-n2c(SCC3CCCCO3)nnc2-c2ccco2)cc1 (centres unmarked) | -19.9
9 | O=C(c1ccco1)N1CCN(S(=O)(=O)c2ccc3c(c2)OCCO3)CC1 | -0.283
10 | CNC(=O)CSc1nc2ccccc2c(=O)n1-c1cc(OC)ccc1OC | -3.21
11 | CCOc1ccc(C(=O)NCC(=O)N2CCC3CCCCC3C2)cc1OCC (centres unmarked) | -6.14
12 | CN(C)C(=O)c1cc(C(=O)c2ccccc2)c[nH]1 | 3.99
13 | CCN(Cc1ccncc1)C(=O)c1ccccc1NS(=O)(=O)c1ccc(F)cc1 | 1.78
14 | Cc1ccc2nc3c(cc(C(N)=S)c(=N)n3CCCOC(C)C)c(=O)n2c1 | -74.4
15 | Nc1ccccc1SCc1csc(-c2ccc(Cl)cc2)n1 | 13.5
16 | Cc1nc2ccc(NC(=O)c3cncc(Br)c3)cc2s1 | -6.23
17 | O=C(c1cc2nc(-c3ccco3)cc(C(F)(F)F)n2n1)N1CCc2ccccc2C1 | -11.2
18 | Cn1cc([C@@H]2C[C@H]3CN(Cc4cccc(Cl)c4)C(=O)[C@]34CCCN24)c2ccccc21 | -72.7
19 | CCOC(=O)c1sc(N)c(C(=O)OCC)c1C | 9.73

Row | SMILES | hERG current change (%, negative = inhibition) at 10uM [%]
20 | Cc1csc(NC(=O)CSc2ccc(-c3ccc(F)cc3)nn2)n1 | -26.8
21 | CCn1c(Cc2ccc(OC)cc2)nnc1SCC(=O)NC1CCCCC1 | 15.3
22 | CCCOC(=O)c1ccc(-c2ccc(C=O)o2)cc1 | -7.75
23 | CCC(CC)NC(=O)C1CCN(c2ccc(S(=O)(=O)N3CCOCC3)cc2[N+](=O)[O-])CC1 | -2.79
24 | CN1C2CCC1CC(NC(=O)c1ccc(Cl)cc1)C2 (centres unmarked) | 7.55
25 | COC(=O)C(NC(C)=O)(Nc1ccc(Br)cn1)C(F)(F)F (centres unmarked) | 3.47
26 | Cc1ccc(N(C)C(=O)N2CCN(S(=O)(=O)c3ccc4ccccc4c3)CC2)cc1 | -4.15
27 | Cc1nc2sc(C(c3cccs3)N3CC(C)CC(C)C3)c(O)n2n1 (centres unmarked) | -10.5
28 | O=C(COc1ccc(Br)cc1)NC1CC1 | 5.78
29 | CC(C)n1c(NCc2ccc(N(C)C)cc2)nc2ccccc21 | -25.1
30 | CN(C)C1(CNC(=O)Cc2ccccc2F)CCCCC1 | 13.2
31 | Cc1c(CN2CCCC(C(=O)c3cccc(OC(C)C)c3)C2)c(=O)n(-c2ccccc2)n1C (centres unmarked) | -57.2
32 | CCOC(=O)c1c(C)n(C)c2cc(-c3ccc(F)cc3)c(O)cc12 | 13.7
33 | COCc1nnc(NC(=O)c2ccc(S(=O)(=O)N3CCCc4ccccc43)cc2)o1 | 11
34 | Cn1ccnc1Sc1nnnn1-c1ccccc1 | -9
35 | O=C(NC1CCCC1)C1CCN(C(=O)c2ccc(Cl)cc2Cl)CC1 | 9
36 | O=S1(=O)NC(=NCc2ccco2)c2ccccc21 | 2.66
37 | CCC(C)NC(=O)C1(C)CCC(=O)N1Cc1ccccc1OC (centres unmarked) | -1.24
38 | Cc1ccc(C(C)C)c(OCC(=O)NNC2=CC(=O)CC(C)(C)C2)c1 | -11.9

Row | SMILES | hERG current change (%, negative = inhibition) at 10uM [%]
39 | O=S(=O)(c1ccccc1C(F)(F)F)N1CCOCC1 | 3.29
40 | O=C(O)CNC(=O)CCCn1nnc2ccccc2c1=O | 14.3
41 | COc1ccc(/C=N/NC(=O)c2ccc(-c3ccccc3)cc2)cc1O | 12.9
42 | CCCOc1ccc(C2C(C#N)=C(N)Oc3nc[nH]c(=O)c32)cc1OC (centres unmarked) | 8.85
43 | COC(=O)c1ccccc1NC(=O)COC(=O)CSCC(=O)N1CCOCC1 | 0.439
44 | COc1ccc(OC)c(C(=O)/C=C/c2ccccc2C(F)(F)F)c1 | 15.2
45 | COc1ccc(C(=O)Nc2ccc(S(=O)(=O)N3CCCC3)cc2)cc1[N+](=O)[O-] | 15.7
46 | CC(C)N(Cc1ccccc1)C(=O)COC(=O)c1ccccc1SCC(=O)N1CCCC1 | -24.9
47 | CCCCNC(=O)N(O)C1N(/N=C/c2ccc(N(C)C)cc2)C(=S)SC1(C)C (centres unmarked) | 9.67
48 | CN(Cc1cccc(F)c1)C(=O)c1cccc(S(=O)(=O)N2CCN(Cc3ccccc3)CC2)c1 | 8.05
49 | Nc1ccc2oc(-c3ccccn3)nc2c1 | 15.4
50 | CCOC(=O)c1ccc(NC(=O)N2CCN(CCc3ccccc3)CC2)cc1 | -45.5
51 | CCO/C([O-])=N/c1c[n+](N2CCOCC2)no1 | 17.4
52 | O/N=C/c1ccc(-c2ccccc2OC(F)(F)F)o1 | 5.95
53 | CCOc1cc(/C=C2\C(=O)N(c3cccc(C(F)(F)F)c3)C(=O)c3ccccc32)ccc1O | 6.39
54 | CC(C)CN(C(=O)c1cc(=O)[nH]c2ccccc12)c1c(N)n(Cc2ccccc2)c(=O)[nH]c1=O | -4.41
55 | CCc1ccc(/C=C2/C(=O)N(C)C(=S)N2CC(=O)OC)s1 | 11.9
56 | Cc1ccc(S(=O)(=O)NCc2ccc3c(c2)cc(C)n3C)cc1 | 10.6

From article PMC4336329 (PLoS ONE, 2015)
